Test results published in the supplement of paper PMC10126150.
Values marked as one replicate rest on one cluster of the flow cell; about a third of the high ones do not repeat.

Test system: ATP
Assay: switch fluorescence ratio, 500 uM ATP over buffer (Cy3 cluster intensity, sum of 5 cycles each) (fold (ratio)); higher = stronger signal-on switching upon ATP binding; sequences stand for … in TCGTCGGCAGCGTCAGATGTGTATAAGAGACAGTTTTTTTTTTTTTTTTTTTTTTTTT…TC
Details: aptamer strand: ATP DNA aptamer (quencher-CACCTGGGGGAGTATTGCGGAGGAAGG + anchor), 100 nM annealed; ATP concentration: 500 uM; one replicate
Procedure, shortened: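 Clusters with intensities outside 100-1000 RFU were excluded. The remaining Cy3-labelled switching-strand clusters on a modified Illumina MiSeq flow-cell had been annealed to 100 nM quencher-labelled ATP aptamer and imaged in selection buffer, then after 15 min with 500 uM ATP at 22 °C, for five cycles separated by NaOH stripping and re-annealing. The fluorescence ratio, averaged per switch-domain sequence, is each cluster's summed target-cycle Cy3 intensity over its summed buffer-cycle Cy3 intensity.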
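Further: ATP exposure 15 min at 22 °C before imaging.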

Sequence	switch fluorescence ratio
GATATGCGTA	1.05
TGCTCAGCAA	2.24
CGTCCCGGCG	1.02
TTCCGTGATG	1.18
GGCCGATGTG	0.992
TTCGTGAAAG	0.96
GGTTTACAT	1.01
TAATCATCCT	1.08
ATGTGGAACT	0.966
ACTTTGCTGC	1.22
GACTTTATAG	0.984
GGACTGCCCC	1.1
ATTAAATGGA	1.04
GATCTACCTC	1.07
GAGGGGTTTC	1.07
GTTGATAAAA	1.01
TGTACTTGGA	0.998
AAGGCTTGTG	1.01
GACGTAAGGT	4.7
CTGCCAAGGC	1.62
TTCAGGTGCA	1.55
CAGTTTCCTA	0.967
GAGGTTCTC	1.15

Sequence	switch fluorescence ratio
GTAAACTTAC	1.18
TTGCTTTGCG	1.02
ACGTGGAGAC	1.11
AGAGTTGAGG	0.992
TTGAAGTTCC	1.12
AAGCCATTCG	1.03
GCTGCTTCGA	1
AGGGCTTCGA	1.04
GTACTCGGAG	1.01
TTCCGTGCCG	1
CGTATTATAT	1
CGGTCCTTCC	1.33
CTTTCATATA	0.996
CCTTAGAATG	1.03
GTTTTTGAT	0.971
CGTTGAGGTC	1.06
CATGGTTTAA	1.05
TTTTAGAAG	1.01
TGGCTATGTC	1.01
GTAACATTTT	0.963
ACGAGTCAGT	0.952
ACGCTAAGCA	1.28
CTGTCTATGT	0.984

Sequence	switch fluorescence ratio
TGAGTACAAG	0.986
TGGGCATTCC	1.13
GTATCTGTAT	0.972
GTATTGTGGA	0.973
CGTGAATCA	1
AGCCGAGGTA	1.02
GCTCCATGTA	1.03
AGCGGTTGGT	0.939
AACCTATCTA	1.05
TGTCTAGTAA	0.961
CTTGGTAGCT	1.03
GAGGGGCGG	1
CTGCTTTCTA	0.983
GTTTGATGTG	1
TTCGATGACG	1.04
GATATAAAAG	1.04
TACAACATCT	1.06
TCAGTGGAGA	1.08
CCGTTAAGTT	1.02
TATCATCGGG	1.03
CTTGTAAGTT	0.988
TAAAAAAACC	0.963
GATAGGGTTC	1.01

Sequence	switch fluorescence ratio
CGATCCTTCG	1.03
GCAGGTCATT	0.932
ACATGTGAAT	0.971
GAAAAATAGT	0.975
CGCGTAGATT	1.09
CCCCCTTTTT	1.83
GGTGTTGTAG	0.992
CGCCCTGTCC	1.11
GGCTCGAGGT	1.01
TTCAGGCCTA	1.01
TAGGGAAT	1.01
CATAATACCG	1.05
ATTGGTGGTC	1.02
AACAATGAGC	1
TTAGACTACG	1.08
CTCGTCCGTG	1.01
ACAGTTGAAC	0.999
GAACCTTTG	1.17
CACCTCCAGA	1.06
AGTGAAGATA	0.995
TAGCTCAATA	1.04
GAGGCATTTC	1.95
TTCCTGAAAT	1.03

Sequence	switch fluorescence ratio
TCAAGAGCCC	1.01
CCTGTGGTT	1.02
GGGAAGGACC	0.977
GTACCGCTGA	1.17
ACCGTATTAT	1.16
AGGTTCTGTG	0.981
ACAAGTGGGC	1.01
ATCAACACG	1.06
ACTAATGAGT	1.02
ATCTATTAAT	1.03
TTACTAGAGA	1.03
CTGGGCTGCC	1.02
TATTTTGC	1.02
TTTTACTAGC	1.04
AGAACCAGCC	1.91
AGTCGGCGTT	1.01
GTTTTTGAAG	0.981
CATAGCGGAA	1.09
CAGCAATGAG	1.83
GTGGACTAGC	0.979
GCTCTCTAAG	0.949
TAAAGTGGGT	0.963
CGTGGACCCC	1.04

Sequence	switch fluorescence ratio
TGAAAAATGA	1.04
ACGAGAGTCA	1
ACTGGACTTA	1.19
TAACCGTCCG	1.32
TAGATTAAAA	0.995
GAACCTTTCC	3.44
GGATAATGGG	0.976
GGGATTTACA	0.98
GGTTCGTTTC	1.02
CTGACCGGAT	1.05
TTACGAACTA	1.31
AACGGTCTAT	1.02
GCTTGACCGG	1.03
TAACGTGAAG	0.996
GAGGGATCGG	0.983
ACGTAAGCCT	1.05
CGGGAGGAA	1.02
CCTACGGTTG	1.53
GTTTTTAGGA	0.961
CTCGCCCGTG	1.05
ATTATCAGTA	0.995
CGAAAACTAG	1.08
ATAGTTTTAG	0.998

Sequence	switch fluorescence ratio
GTATTACAGT	0.996
AGTTCCGCTA	2.17
AGGTCTAATT	0.985
GAAAGAAAGT	1.01
TACGATGAAT	1
TCAGACGGAC	1.52
TGACGTCAG	0.977
GACTTATGGT	0.996
AAGAGCGTAG	0.969
TTTATTTCG	1.01
CCGTGAGGCT	1.08
GCCTTTGGTC	0.959
GAGGCCACTA	1.03
TATCGTTAGA	0.973
AAAGTCGGCC	0.972
TCGGATTGAG	0.998
AGAGTGCTGT	0.978
TGTTAGTTGT	0.999
TTAGCATCTC	1.28
